# PubChem BioAssay (NCI)
# A structure can be active in one record and inactive in another.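 Note: values are percent growth. 100 is the growth of untreated cells, values between 100 and 0 indicate rising inhibition; between -100 and 0 indicates cell death.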 Some entries of the source have several records that differ or are many. They are shown here; other results are not. How the source made its calls: active means growth percent below 10; inactive means the rest. There may be further records. The screen tested this drug many times, at the concentration stated with the values; each value is one run. Additions like (4×) say how often a value occurs here.
# Tests used:
# Experiment in all cases: NCI-60 one-dose screen, 48 h (100 = growth as untreated, 0 = no growth, -100 = all killed)
# UACC-62 melanoma = settings: 2.5 mM
# LOX IMVI melanoma = settings: 2.5 mM
# SK-MEL-28 melanoma = settings: 2.5 mM; runs of 1991
smiles,measurement,setting,value
O=c1[nH]cc(F)c(=O)[nH]1,growth,UACC-62 melanoma; runs of 1997,"active: -90.4, 0.112, -9.66, -2.88, -26.9, -8.41, 8.2, -11, -17.8, -13.3, -24, -63.7, -94.9, 1.09, -39.6, -76.4, -43.1, 0.319, -7, 7.9, -12.2, -44.1, -100, -71.1, -3.83, -16.2, -10.9, -4.52, 0.679, -33.2, -39.3, -17.1, -7.04, -53.6, -21.5, -51.8, -32.3, -26, -32.8, -22.6, -92, -10.4, 1.67, -39.1, -56.8, -82.7, -80.8, -92.3, -25.8, -15.7, -18.5, -18.9, -48.2% and inactive: 27.5, 20.6, 12, 14.7, 15.2, 83.1, 111, 13.3%"
same,growth,UACC-62 melanoma; runs of 1998,"inactive: 104, 21.6, 11.7, 15.6, 17.3, 12.6% and active: 3.66, -54.1, -54.3, -54.5, -54.7, -42.1, -96, -96.8, -98.4, -95.2, -74.2, -33.2, -37, -63.1, 6.15, -55.5, -24.5, -0.113, 5.31, -24.6, -57.3, -42.4, -54.9, 7.52, 4.57, 6.56, -11.2, 9.94, 9.22, -39.9, -30.7, -33.7, -28.9, -30.2, -19.4, -40.9, -39.2, -20.1, -42.5, -22.6, -76.2, -47.1, -60.5, -10.1, -22.4, -31.4 (2×), -40.2, -22.1, -61.4, -57.9, -39.4, -49.2, -40.7, -59.7, -59.1, 3.38, -24.2, -31, -34.6, -35.3, -48.5, -5.09, -41, -45, 1.36%"
same,growth,UACC-62 melanoma; runs of 1999,"inactive: 22.4% and active: -3.35, -44.7, -33.1, -24.9, -60.6, -59.9, -35.2, -45.4, -33.4, -38, 7.23, -69.6, -37.3, -42.4, -98.1, -60, -28.5, -79.5, -17.7, -93.8, -93.1%"
same,growth,UACC-62 melanoma; runs of 2000,"active: -91.8, -74.2, -87, -93.7%"
same,growth,LOX IMVI melanoma; runs of 1991,"active: 3.5, 1.31, -2.98, -0.319, 4.08, -6.14, 1.55, -68.8, -73.8, -8.91, -20, -83.7, 4.96, -28.5, -24.4, -72, -87%"
same,growth,LOX IMVI melanoma; runs of 1992,"active: 3.28, -36.9, -46.1, -24.5, -20.5, -39.8, -64.6 (2×), -30.9, 2.74, 8.04, -16.5, 0.141, -35.3, -86.5, 1.75, 5.15, 4.53, -17, -5.52, -20.4, 1.93, 7.89, 0.242, -68.5, -51.5 (2×), -82.1, -75, -72.4, -82.9, -55.3, -17.2, -5.59, -41.8, 2.36, -19.5, 0.445, -32.7, 4.15, -13.7, -85.4, -38.3, -26.8, -53.3, -71.5, -55.7, 1.07, -8.14, -27.7, -58.2, -40.5, 0.592, -38.7, -43.7, -8.17, -34.8, -33.8 (2×), -26, -11.9, -48.5, -46.6, -36.4, -10.9, -7.57, -18.3, -31.1, -4.84, -97.8, -51.8, -94.4, -89.2, -34.3, 1.38, -56.3, -56.2 (2×), -53.8, -31.2, 2.15, -45.7, -6.73, -30, -88.6 (2×), -91.6, -86, -19.8 (2×), 0.111, -46.9, -8.42, -64, -32.9, -25.4, -16.9, -13.4, -49.8, -3.94, -91.7, -80.9, -29.5, -4.25, -9.51, -31.6, -78, -89.3, -0.13, -9.57% and inactive: 19.3, 48.1, 11, 83.9%"
same,growth,LOX IMVI melanoma; runs of 1993,"active: 6.83, -59.7, 3.11, -4.27, -49.6, -0.536, -28, -58.9, -31.4, -33.4, -11.3, 8.61, -58.6, -40.6, -29.5, -5, 2.52, 1.92, -8.96, 5.1, 7.51, -50.6, 3.14, 8.23, -21.2, -66.4, -73.7, -41.8, -43.5, -80.9, -3.03, 0.206, -12.9, -46.2% and inactive: 10.9, 18.3, 84.6, 10.5%"
same,growth,LOX IMVI melanoma; runs of 1994,"active: 9.63, 0.0947, 7.33, -16.8, -50.2, 5.97, -13.9, -45.7, -35.8, 0.571, 1.95, 5.69, -2.6, -22.2, 2.82, -8.01, -25.5, -25.3, 4.5, -81.4, 8.88, 0.648, 0.99, -23, -34.7, 3.74, 0.385, -11% and inactive: 12.9%, 12.5%, 14.9%"
same,growth,LOX IMVI melanoma; runs of 1995,"active: 1.78, -84.3, 8.74, -2.48, -21, -81, -27.6, -76.4, -20.9, -48, -59.9, -17.4, -41.3, -61.3, -43.9, -73.4, -90.2, 0.153, -15.1, 8.96, 2.4, -16.4 (2×), -16.6, -59.6, -37.5, -13.4, -22.2, 2.54, -23.7, -4.3, -31, 1.72%"
same,growth,LOX IMVI melanoma; runs of 1996,"active: -7.1, -12.5, -7.48, 0.79, -85.6, 7.08, 0.0355, 5.23, -44.8, 2.79, -6.61, 3.4, -14.2, -14.7, -28.2, 4.03, 9.89, -12.7, 4.84, 0.836, -38.5, -4.98, -10.5, -12.1, 1.28, 1.78, -25.5, -24, -39.5, -37.9, -18.9, -12.9, 7.18, -14.5, -26.6, -51.7, -59.1, -8.8, 0, -18.4, 2.52, -20.6, 6.39, -6.2, -0.928, 5.48, 6.81, -60.9, -17.6, -30.7% and inactive: 15.2, 38, 11, 17.4%"
same,growth,LOX IMVI melanoma; runs of 1997,"active: -9.83, 3.19, -17.6, -15.5, -24.8, -25.5, -13.8, -33.4, -14.4, -15.9, -66.4, -23.2, -13.1, 1.71, 0, -22.3, 1.45, 6.63, 4.23, -66.9, -20.1, -27.5, 2.28, -33.8, -19.2, 5.3, -13.6, -7.8, 6.13, 3.47, -100, -36.3, 2.21% and inactive: 28.7%, 10.3%"
same,growth,LOX IMVI melanoma; runs of 1998,"active: 7.4, 3.64, -14.3, -17.6, 8.82, -34.4, -19.1, -13.5, -38.1, -13.1, -1.27, 2.67, 9.19, -33.8, -47.8, 7.83, -19.3, -19.7, -27.5, 4.04, -9.71, 1.64, 2.64, -22% and inactive: 17.8%"
same,growth,LOX IMVI melanoma; runs of 1999,"active: -59.6, -20.1, 0.022, -29, -28.1, 0.0616, -100, 1.68, 1.14, 9.5, 4.71, -55.4, -50, 0.805, 0.231, 2.61%"
same,growth,LOX IMVI melanoma; runs of 2000,"active: -62.4, 1.05, 2.32, 0.0699%"
same,growth,SK-MEL-28 melanoma,"active: -1.02, -5.01, -3.84, 7.43% and inactive: 44.3, 39.1, 35.3, 20, 45.5, 32.6, 30.5, 35.5, 27.9, 42.5, 26.9, 32.3, 40.8, 21.1, 37.2%"
